Measurements from US20130023585A1, “Neuraminidase Inhibitors” (TSRL, INC., priority 2010, published 2013).

Conditions: oral, LC/MS/MS

## CC(=O)N[C@H]1[C@H]([C@H](O)[C@H](O)CO)OC(C(=O)OC(OC(=O)[C@H](N)C(C)C)C(C)C)=C[C@@H]1NC(=N)N (stereo partly shown) [ZAN-Isp-Val]
  species detectable in plasma after administration of the analog: only the Zanamivir was detectable in plasma
